# Assay results: the supplement of paper PMC12217912
# The other results are listed elsewhere or left out. The full chains were built here from the parent and the listed change. Inactive controls read about 0.05.
# B1: TEV protease; numbered along this chain (parent)
# chain: MGESLFKGPRDYNPISSSICHLTNESDGHTTSLYGIGFGPFIITNKHLFRRNNGTLVVQSLHGVFKVKDTTTLQQHLVDGRDMIIIRMPKDFPPFPQKLKFREPQREERICLVTTNFQTKSMSSMVSDTSCTFPSGDGIFWKHWIQTKDGQCGSPLVSTRDGFIVGIHSASNFTNTNNYFTSVPKNFMELLTNQEAQQWVSGWRLNADSVLWGGHKVFMVKPEEPFQPVKEATQL
# Variants of: B1
# Assay: raw area under fraction-flipped curve 0-4 h after induction (AUC4h, not background-subtracted), DNA-recorder readout of cleavage of the substrate (dimensionless); higher = more cleavage of the substrate by the protease variant
# Details: temperature: 34 °C; time window: 0-4 h after rhamnose induction
# Experimental: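 In vivo DNA recorder in E. coli TOP10(DE3) ΔrhaA at 34 °C. Each TEVp single-site mutant (parent TEVp 0) is paired with a single-site variant of the 7-mer TEVs (canonical ENLYFQ|S). The substrate sits between flexible linkers in a Bxb1-sfGFP-TEVs-SsrA fusion, so cleavage stabilises Bxb1 and speeds flipping of a recombination array, read by NGS. The value is the raw area under the fraction-flipped curve over 0-4 h after rhamnose induction (AUC4h), with ≥20 reads per time point. It is not background-subtracted; inactive controls average about 0.047.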
# 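Further: Bxb1 expression induced with 0.2% (w/v) L-rhamnose at OD600 near 0.5, cultures sampled hourly, flipped fraction per protease–substrate barcode pair counted by paired-end Illumina sequencing.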
variant,measurement,value
S209P,area with substrate ECLYFQS,0.078
same,area with substrate EGLYFQS,0.0668
same,area with substrate EILYFQS,0.0674
same,area with substrate EKLYFQS,0.0639
same,area with substrate ELLYFQS,0.0813
same,area with substrate ERLYFQS,0.0791
same,area with substrate ESLYFQS,0.0849
same,area with substrate ETLYFQS,0.0851
same,area with substrate EVLYFQS,0.0841
same,area with substrate EWLYFQS,0.0637
same,area with substrate EYLYFQS,0.104
S209I,area with substrate ECLYFQS,0.119
A207C,area with substrate ECLYFQS,0.119
same,area with substrate EELYFQS,0.131
same,area with substrate EFLYFQS,0.0911
same,area with substrate EGLYFQS,0.101
same,area with substrate ESLYFQS,0.104
same,area with substrate ETLYFQS,0.154
A207I,area with substrate ECLYFQS,0.0802
same,area with substrate EILYFQS,0.102
same,area with substrate EKLYFQS,0.108
same,area with substrate EMLYFQS,0.0949
same,area with substrate EQLYFQS,0.0617
same,area with substrate ESLYFQS,0.0569
same,area with substrate EVLYFQS,0.12
same,area with substrate EYLYFQS,0.0928
C152T,area with substrate ECLYFQS,0.0881
same,area with substrate EDLYFQS,0.051
same,area with substrate EELYFQS,0.0401
same,area with substrate EILYFQS,0.0491
same,area with substrate EKLYFQS,0.049
same,area with substrate EMLYFQS,0.0609
same,area with substrate EPLYFQS,0.0476
same,area with substrate ERLYFQS,0.0694
same,area with substrate ESLYFQS,0.0648
same,area with substrate EVLYFQS,0.0652
same,area with substrate EWLYFQS,0.0693
same,area with substrate EYLYFQS,0.0521
C152Y,area with substrate ECLYFQS,0.0724
same,area with substrate EELYFQS,0.0512
same,area with substrate EGLYFQS,0.0281
same,area with substrate EKLYFQS,0.0559
same,area with substrate EMLYFQS,0.0523
same,area with substrate EWLYFQS,0.047
G35E,area with substrate EDLYFQS,0.0511
same,area with substrate EELYFQS,0.036
same,area with substrate EGLYFQS,0.0242
same,area with substrate EKLYFQS,0.0386
same,area with substrate ESLYFQS,0.0444
same,area with substrate EWLYFQS,0.0066
I86N,area with substrate EDLYFQS,0.0503
same,area with substrate EELYFQS,0.0477
same,area with substrate EFLYFQS,0.0453
same,area with substrate EHLYFQS,0.0697
same,area with substrate EQLYFQS,0.0497
same,area with substrate ERLYFQS,0.0439
same,area with substrate ESLYFQS,0.0489
same,area with substrate EVLYFQS,0.0455
R102Y,area with substrate ECLYFQS,0.0415
same,area with substrate EELYFQS,0.0369
same,area with substrate EFLYFQS,0.0485
same,area with substrate EKLYFQS,0.0422
same,area with substrate ESLYFQS,0.0261
same,area with substrate EVLYFQS,0.0504
H215V,area with substrate ECLYFQS,0.0848
same,area with substrate EHLYFQS,0.0614
same,area with substrate EMLYFQS,0.0956
same,area with substrate EQLYFQS,0.06
same,area with substrate ERLYFQS,0.069
same,area with substrate ESLYFQS,0.0863
same,area with substrate ETLYFQS,0.071
same,area with substrate EVLYFQS,0.0704
F163H,area with substrate ECLYFQS,0.112
same,area with substrate EELYFQS,0.0955
same,area with substrate EMLYFQS,0.146
same,area with substrate EPLYFQS,0.11
same,area with substrate EQLYFQS,0.146
same,area with substrate ERLYFQS,0.124
same,area with substrate ESLYFQS,0.133
